The values below come from PubChem BioAssay AID485344 (National Center for Advancing Translational Sciences (NCATS), 2010).

Out of some 340,000 compounds screened, about 6,900 (2%) were called active. Rule as the data show it: active = inhibition above about 30%; inactive = below that, where a call was filed. The entries are a selection whose mix differs from that of the whole data set. Where no call is shown, the source filed none.

In general, inhibition refers to the drop in the measured response relative to a control, in per cent.

UniProt P14416, sequence (P14416 whole entry, looked up): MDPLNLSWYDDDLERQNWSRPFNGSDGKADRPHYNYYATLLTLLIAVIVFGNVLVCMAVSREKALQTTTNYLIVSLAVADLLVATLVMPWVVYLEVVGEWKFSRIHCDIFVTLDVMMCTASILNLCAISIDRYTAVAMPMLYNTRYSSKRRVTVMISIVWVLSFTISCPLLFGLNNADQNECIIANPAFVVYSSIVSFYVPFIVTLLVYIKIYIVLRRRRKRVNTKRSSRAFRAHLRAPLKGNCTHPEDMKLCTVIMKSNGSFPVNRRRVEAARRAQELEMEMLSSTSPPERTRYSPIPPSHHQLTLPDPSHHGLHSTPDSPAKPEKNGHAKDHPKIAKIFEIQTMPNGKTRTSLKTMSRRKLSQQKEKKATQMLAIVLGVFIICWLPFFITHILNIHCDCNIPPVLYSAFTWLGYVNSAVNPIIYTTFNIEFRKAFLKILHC

For this experiment, the target named is D(2) dopamine receptor (Homo sapiens) (UniProt P14416). Description: HTS Assay for Allosteric Antagonists of the Human D2 Dopamine Receptor: Primary Screen for Antagonists. Also: 0% is about no effect. To be noted: HEK293 TREx D2 cells, calcium flux, dopamine EC80; at 10 µM; stronger effect = higher value. In outline:
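Cells plated overnight at 30 C with tetracycline; no-wash calcium dye, 30–90 min RT; 10 s baseline; compound pinned; 180 s read; EC80 dopamine added; another 180 s read.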
In general terms: Calcium assays in cells follow changes in intracellular calcium, usually with a dye or a luminescent sensor.
As for `Cc1cc(C)c(NC(=O)Nc2sc3nc4n(c(=O)c3c2C)CCC(C)CC4)c(C)c1` (stereo not drawn), the inhibition is -10%.
With `Cc1cc(C)cc(Nc2ncnc3sc4c(c23)CCCC4)c1`, the inhibition was -3.33%.
Consider `COc1c(Cl)cc(Cl)cc1C(=O)Nc1cccc2cccnc12`, for which the inhibition was found to be 8.56%.
As to `CCc1cccc(NC(=O)CSc2nccn2C)c1`, the inhibition was -20.1%.
As to `CCOC(=O)c1cc(S(=O)(=O)Nc2cc(C)c(Cl)cc2OC)[nH]n1`, the inhibition stood at 3.22%.
`Cc1ccc(C(=O)Nc2cccc(C(F)(F)F)c2)cc1Nc1cnccn1`: the inhibition is active: 58.6%.
Then `COc1ccc(NCc2cccn2-c2nnc(N3CCC(C)CC3)s2)c(OC)c1`, with 9.9%; and `CCc1ccc(NC(=O)C(=O)NCCc2sc(-c3ccc(C)cc3)nc2C)cc1`, with 1.4%.
Take `O=C(CSc1nc2c(c(=O)[nH]1)CCC2)Nc1cc(C(F)(F)F)ccc1Cl`: the inhibition amounted to 7.25%.
Take `CSc1ccc(-c2nc3cc(C)ccn3c2Nc2ccc(C)cc2)cc1`: the inhibition was -4%.
The result for `Cc1cccc(-c2nc(S(=O)(=O)c3ccccc3)c(N3CCN(c4ccccc4)CC3)o2)c1` reads 11.3%.
The result for `O=C(NCC1CCCO1)c1cc(S(=O)(=O)Nc2ccc(Br)cc2)ccc1Cl` (stereo not drawn) reads active: 52.5%; that for `CCOCCn1c(=NC(=O)c2ccc3c(c2)OCCO3)sc2cc(OCC)ccc21`, 9%; that for `COCC(C)NC(=O)C1=CC(c2ccc3c(c2)OCO3)=NS(=O)(=O)N1C` (stereo not drawn), 4.35%.
Take `CCC(C(=O)NC1CCCCC1)n1nc(C)c2sc3ccccc3c2c1=O` (stereo not drawn): the inhibition turned out to be 4.48%.
As for `COc1ccc(S(=O)(=O)N2CCC(c3nnnn3-c3ccccc3)CC2)cc1OC`, the inhibition was 13.1%.
Then `Cc1ccc(Cl)cc1N1CCN(C(=O)c2cnc3c(-c4ccc(F)cc4)c(C)nn3c2C)CC1`, with -8.4%; and `O=C(Cn1cc(SCc2ccc(F)cc2)c2ccccc21)N1CCCC1`, with 5.02%; and `CCN(CC)S(=O)(=O)c1ccc2c(c1)c(=O)c(C(=O)N1CCN(c3cc(C)ccc3C)CC1)cn2C`, with 13.3%.
For the compound `CCc1nnc(NC(=O)c2nc(SCc3ccc(F)cc3)ncc2Cl)s1`, the inhibition was determined as 2.4%.
Consider `CCOc1ccc(OCC)c(NS(=O)(=O)c2ccc3c(c2)CCCN3C(C)=O)c1`, for which the inhibition is -22.6%.
With `CCC12CCCN3CCc4c(n(c5ccccc45)C(O)(C(=O)OC)C1)C32` (stereo not drawn), the inhibition is active: 51%.
Then `CCCCn1c(C2CC(=O)N(c3ccc(OCC)cc3)C2)nc2ccccc21` (stereo not drawn), with -3.5%.
Then `O=C(OCC1CCCO1)c1ccc2c(c1)N(Cc1c(F)cccc1Cl)C(=O)c1ccccc1S2(=O)=O` (stereo not drawn), with 6.14%; and `COc1ccc(-n2nc(C(=O)N3CCN(c4cccc(C)c4)C(C)C3)c3c4ccccc4n(C)c3c2=O)cc1Cl` (stereo not drawn), with -27.3%.
Take `O=C(Cn1nc2c(cc1=O)CCCC2)NCc1ccccc1`: the inhibition is 13.9%.
On to `Cc1ccccc1-c1noc(-c2ccc(NC3CCCC3)c([N+](=O)[O-])c2)n1`, for which the inhibition was -4.46%.
As for `COc1cccc(-n2c(=O)c3c4c(sc3n(Cc3ccccc3C#N)c2=O)CCCC4)c1`, the inhibition was -2.09%.
The result for `O=S(=O)(c1ccc2nc(Nc3ccc(Br)cc3F)ccc2c1)N1CCCC1` reads 0.431%.
The result for `COc1ccccc1NC(=O)CN1CCN(c2ccccn2)CC1` reads active: 50.1%; that for `COc1ccc(OC)c(CNC(=O)c2cnc(N(C)C)nc2)c1`, -24.3%.
The result for `CC(=O)Nc1cccc(-c2nnc(SCC(=O)c3ccc([N+](=O)[O-])cc3)o2)c1` reads -6.13%; that for `CCOc1ccccc1/C=C/c1onc(C)c1S(=O)(=O)N1CCC(C(=O)N2CCCCC2)CC1`, 8.34%.
On to `COc1cc(CN(C(=O)c2ccc(C)cc2)c2ccccn2)cc(OC)c1OC`, for which the inhibition is -13.7%.
For `Cc1ccc(-n2nc(C)c3c(C(=O)Nc4ccc(C)cc4Cl)cc(C)nc32)cc1`, the inhibition came out at 11.6%.
Then `CCOC(=O)CSc1nc(-c2ccc(OC)cc2)cc(C(F)(F)F)c1C#N`, with -2.12%; and `CN(C(=O)CSc1nc2ccc(NC(=O)c3ccccc3)cc2s1)c1ccccc1`, with -7.64%.
`COc1ccc(Cn2c(NCC(C)C)nc3c2c(=O)n(C)c(=O)n3C)cc1`: the inhibition was 4.41%.
With `Cc1ccc(C2=NN(CCC(=O)NCCc3cccc(C)c3)C(=O)CC2)cc1`, the inhibition is -2.86%.
Consider `Cc1cccc(CNC(=O)CCCN2C(=O)c3cccnc3Oc3ccccc32)c1`, for which the inhibition is -8.64%.
Take `COc1ccc(-c2noc(-c3ccc(NCc4ccco4)c([N+](=O)[O-])c3)n2)cc1OC`: the inhibition turned out to be 3.89%.
The result for `CCc1ccc(N2CC(c3nc4ccccc4n3Cc3ccccc3C)CC2=O)cc1` (stereo not drawn) reads 5.27%.
As for `Cc1ccc(S(=O)(=O)N(C)C)cc1NC(=O)CSc1ncc(C(F)(F)F)cc1Cl`, the inhibition was active: 37.2%.
For the compound `CCOc1ccc(C(=O)NCCc2sc(-c3cccc(F)c3)nc2C)cc1OCC`, the inhibition came out at 19%.
Then `O=C(COc1ccccc1)NCCS(=O)(=O)N1CCN(c2ccccc2)CC1`, with active: 77.4%; and `O=C(Nc1ccc(OCc2cc(=O)n3c4c(sc3n2)CCCC4)cc1)c1ccc(F)cc1`, with 6.08%.
Regarding `COC(=O)Cc1c(C)c2ccc3c(c2oc1=O)CN(Cc1ccc(C)cc1)CO3`, the inhibition stood at 14.4%.
For the compound `COc1ccc(-n2nnnc2SCC(=O)NCCc2ccccc2)cc1`, the inhibition worked out at 2.12%.
As to `Cc1ccccc1-c1noc(CSc2nc(-c3ccc(F)cc3)cc(=O)[nH]2)n1`, the inhibition came to 0.775%.
As for `CCc1ccccc1NS(=O)(=O)c1ccc2[nH]cc(C(=O)NC3CCCC3)c(=O)c2c1`, the inhibition is -11.8%.
For the compound `NC(=O)C1CCN(c2ncnc3c2cnn3-c2cccc(Cl)c2)CC1`, the inhibition was 10.2%.
As to `C/C(=N\NC(=S)Nc1cccc(C)c1)c1ccco1`, the inhibition is active: 67.2%.
On to `CCOc1ccc(CCNC(=O)CCn2c(=O)c3cccn3c3ccc(F)cc32)cc1`, for which the inhibition came to 6.95%.
As to `CC(C)COc1ccc(C(=O)Nc2onc3c2CCCC3)cc1`, the inhibition was 19.6%.
In the case of `Cc1ccc(NC(=O)Cn2nc(C(F)(F)F)c3c2CCC3)cc1C`, the inhibition was determined as 5.38%.
Then `O=C(Nc1cccc(C(F)(F)F)c1)C1CCN(S(=O)(=O)c2cccc3nsnc23)CC1`, with 19.4%; and `COc1ccc(-c2cnc(C)o2)cc1S(=O)(=O)Nc1cccc(C(F)(F)F)c1`, with 17.1%.
Then `CCOC(=O)c1cnn2c(C(F)(F)F)cc(-c3ccc(Br)cc3)nc12`, with -17.6%.
With `CCC1Oc2ccc(C)cc2N(CC(=O)NCCc2ccccc2)C1=O` (stereo not drawn), the inhibition is -15.5%.
With `CCOC(=O)c1cnc2ccc(OC(F)(F)F)cc2c1Nc1ccccc1C(=O)O`, the inhibition was -17.1%.
On to `Cc1ccc(NC(=O)CCCN2C(=O)COc3ccc(C)cc32)c(Cl)c1`, for which the inhibition turned out to be 19.3%.
For the compound `COc1cccc(/C=C/c2nc(C#N)c(N3CCCCCC3)o2)c1`, the inhibition is -1.51%.
Consider `CCc1ccc2nc(N(Cc3cccnc3)C(C)=O)sc2c1`, for which the inhibition is -5.74%.
